The supplement of paper PMC8728848
The other results are listed elsewhere or left out.

How the values were obtained:
Test in all cases: glycan array binding signal (z-score within array); higher = stronger binding
Settings in all cases: glycan notation: IUPAC condensed, linker removed
[1] = target: GlcNAc(b1-3)Gal(b1-4)GlcNAc(b1-3)Gal(b1-4)GlcNAc(b1-3)GalNAc
In short: (§1)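 Glycan array data came from 3228 arrays in the Consortium for Functional Glycomics database, and only arrays with an available protein sequence were kept. Glycan names were put into IUPAC-condensed notation, and columns mapping to the same glycan were averaged. The binding signal is a within-array Z-score, averaged across arrays of one protein sequence run at different concentrations or buffers and across linkers. A negative Z-score can be read as non-binding.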

[2] = target: GlcNAc(b1-3)Gal(b1-4)GlcNAc(b1-3)GalNAc
In short: as §1

[3] = target: GlcNAc(b1-3)Gal(b1-4)GlcNAc(b1-3)[GlcNAc(b1-3)Gal(b1-4)GlcNAc(b1-3)]GalNAc
In short: as §1

[4] = target: GlcNAc(b1-3)Gal(b1-4)GlcNAc(b1-6)[Gal(b1-3)]GalNAc
In short: as §1

[5] = target: GlcNAc(b1-3)Gal(b1-4)GlcNAc(b1-6)[GlcNAc(b1-3)Gal(b1-3)]GalNAc
In short: as §1

[6] = target: GlcNAc(b1-3)Gal(b1-4)GlcNAc(b1-6)[GlcNAc(b1-3)]Gal(b1-4)GlcNAc
In short: as §1

GlcNAc(b1-3)GalNAc = target: GlcNAc(b1-3)GalNAc
In short: as §1

GlcNAc(b1-3)Man = target: GlcNAc(b1-3)Man
In short: as §1

[7] = target: GlcNAc(b1-3)[GlcNAc(b1-4)][GlcNAc(b1-6)]GlcNAc
In short: as §1

[8] = target: GlcNAc(b1-3)[GlcNAc(b1-6)]Gal(b1-4)GlcNAc
In short: as §1

[9] = target: GlcNAc(b1-3)[GlcNAc(b1-6)]GalNAc
In short: as §1

[10] = target: GlcNAc(b1-4)Gal(b1-4)GlcNAc
In short: as §1

GlcNAc(b1-4)GlcNAc = target: GlcNAc(b1-4)GlcNAc
In short: as §1

[11] = target: GlcNAc(b1-4)GlcNAc(b1-4)GlcNAc
In short: as §1

[12] = target: GlcNAc(b1-4)GlcNAc(b1-4)GlcNAc(b1-4)GlcNAc(b1-4)GlcNAc
In short: as §1

[13] = target: GlcNAc(b1-4)GlcNAc(b1-4)GlcNAc(b1-4)GlcNAc(b1-4)GlcNAc(b1-4)GlcNAc
In short: as §1

[14] = target: GlcNAc(b1-4)[GlcNAc(b1-6)]GalNAc
In short: as §1

[15] = target: GlcNAc(b1-6)Gal(b1-4)GlcNAc
In short: as §1

GlcNAc(b1-6)GalNAc = target: GlcNAc(b1-6)GalNAc
In short: as §1

[16] = target: GlcNAc6S(b1-3)Gal(b1-4)GlcNAc
In short: as §1

Kdn(a2-3)Gal(b1-3)GalNAc = target: Kdn(a2-3)Gal(b1-3)GalNAc
In short: as §1

Kdn(a2-3)Gal(b1-3)GlcNAc = target: Kdn(a2-3)Gal(b1-3)GlcNAc
In short: as §1

Kdn(a2-3)Gal(b1-4)Glc = target: Kdn(a2-3)Gal(b1-4)Glc
In short: as §1

Kdn(a2-3)Gal(b1-4)GlcNAc = target: Kdn(a2-3)Gal(b1-4)GlcNAc
In short: as §1

[17] = target: Kdn(a2-3)Gal(b1-4)[Fuc(a1-3)]GlcNAc
In short: as §1

Kdn(a2-6)Gal(b1-4)GlcNAc = target: Kdn(a2-6)Gal(b1-4)GlcNAc
In short: as §1

[18] = target: Man(a1-2)Man(a1-2)Man(a1-3)Man
In short: as §1

[19] = target: Man(a1-2)Man(a1-2)Man(a1-6)[Man(a1-3)]Man
In short: as §1

Man(a1-2)Man(a1-3)Man = target: Man(a1-2)Man(a1-3)Man
In short: as §1

[20] = target: Man(a1-2)Man(a1-3)[Man(a1-2)Man(a1-6)]Man
In short: as §1

[21] = target: Man(a1-2)Man(a1-3)[Man(a1-2)Man(a1-6)]Man(a1-6)[Man(a1-2)Man(a1-2)Man(a1-3)]Man
In short: as §1

[22] = target: Man(a1-2)Man(a1-3)[Man(a1-2)Man(a1-6)]Man(a1-6)[Man(a1-2)Man(a1-2)Man(a1-3)]Man(b1-4)GlcNAc(b1-4)GlcNAc
In short: as §1

[23] = target: Man(a1-2)Man(a1-3)[Man(a1-6)]Man(a1-6)[Man(a1-2)Man(a1-3)]Man(b1-4)GlcNAc(b1-4)GlcNAc
In short: as §1

[24] = target: Man(a1-2)Man(a1-6)[Man(a1-3)]Man(a1-6)[Man(a1-2)Man(a1-2)Man(a1-3)]Man
In short: as §1

[25] = target: Man(a1-2)Man(a1-6)[Man(a1-3)]Man(a1-6)[Man(a1-2)Man(a1-2)Man(a1-3)]Man(b1-4)GlcNAc(b1-4)GlcNAc
In short: as §1

Man(a1-3)[Man(a1-6)]Man = target: Man(a1-3)[Man(a1-6)]Man
In short: as §1

[26] = target: Man(a1-3)[Man(a1-6)]Man(a1-6)[Man(a1-2)Man(a1-3)]Man(b1-4)GlcNAc(b1-4)GlcNAc
In short: as §1

B1: PX9937A-bvu-521-23-521 (Bacteroides vulgatus) (protein)
chain: LDLAPEDYYGAGNFWKEASQPKAFMLGLHAQLRSYYDMFYTLGELRGGTQRVGTSSLNTSLNYADIRSQNISEDIPGISNWNGLYSPIMQVNHFIQEVENGCTFLDDATRSRYLGQAYGMRALYYFMLYRTFGGVPLITKVDILDGKPSADKFYVERATPEATMEFIKADINKSENYFGNNTSFDAYDWSRYATLMLKAEIYMWAAKVSITGFTATGATDLQTAKTALSGIIGHFELMDNFASIFSCDNKKNTEIIFAMPFIEGEASNDGGRFLYQDAVFLGQAYGRNGKVIEKDTLNLKGTGGVFRDEYTEDFWKTFKEGDSRRDATFMEYYMKNDNGTLSEFGCVMKKRIGTINSNDNRIYISDIPVYRYADALLMMAEIENGLNNPCASYINEVRKRAYGDTFEENKYTEGSYAENELAILQERDKEFVSEGKRWFDVLRMHDASGRSLVFSANANYPGTNPILGTEEAYKMLWPVNIGTLNVNPLLTQTPGYGKK
- glycan array binding signal (z-score) [1]: -0.527
- glycan array binding signal (z-score) [2]: -0.404
- glycan array binding signal (z-score) [3]: 1.31
- glycan array binding signal (z-score) [4]: 0.239
- glycan array binding signal (z-score) [5]: -0.402
- glycan array binding signal (z-score) [6]: -0.214
- glycan array binding signal (z-score) (GlcNAc(b1-3)GalNAc): -0.286
- glycan array binding signal (z-score) (GlcNAc(b1-3)Man): -0.399
- glycan array binding signal (z-score) [7]: -0.315
- glycan array binding signal (z-score) [8]: -0.227
- glycan array binding signal (z-score) [9]: -0.347
- glycan array binding signal (z-score) [10]: -0.354
- glycan array binding signal (z-score) (GlcNAc(b1-4)GlcNAc): -0.09
- glycan array binding signal (z-score) [11]: -0.431
- glycan array binding signal (z-score) [12]: -0.205
- glycan array binding signal (z-score) [13]: -0.131
- glycan array binding signal (z-score) [14]: -0.368
- glycan array binding signal (z-score) [15]: 1.73
- glycan array binding signal (z-score) (GlcNAc(b1-6)GalNAc): -0.127
- glycan array binding signal (z-score) [16]: 0.188
- glycan array binding signal (z-score) (Kdn(a2-3)Gal(b1-3)GalNAc): 2.84
- glycan array binding signal (z-score) (Kdn(a2-3)Gal(b1-3)GlcNAc): -0.441
- glycan array binding signal (z-score) (Kdn(a2-3)Gal(b1-4)Glc): -0.287
- glycan array binding signal (z-score) (Kdn(a2-3)Gal(b1-4)GlcNAc): -0.653
- glycan array binding signal (z-score) [17]: -0.421
- glycan array binding signal (z-score) (Kdn(a2-6)Gal(b1-4)GlcNAc): -0.698
- glycan array binding signal (z-score) [18]: -0.541
- glycan array binding signal (z-score) [19]: -0.275
- glycan array binding signal (z-score) (Man(a1-2)Man(a1-3)Man): 0.085
- glycan array binding signal (z-score) [20]: -0.412
- glycan array binding signal (z-score) [21]: -0.213
- glycan array binding signal (z-score) [22]: -0.427
- glycan array binding signal (z-score) [23]: -0.525
- glycan array binding signal (z-score) [24]: -0.338
- glycan array binding signal (z-score) [25]: -0.204
- glycan array binding signal (z-score) (Man(a1-3)[Man(a1-6)]Man): -0.427
- glycan array binding signal (z-score) [26]: -0.406
